Data as given in the supplement of paper PMC7826260.
The list shows a part of the results. One pool of 16,384 single-stranded DNAs met each Rep nickase domain in vitro for 1 h at 37 °C with 3 µM enzyme; only the middle of the 90-letter strands is printed. Uncut reads are compared with the no-enzyme pool on a log2 scale; strong cutting gives strongly negative numbers. There is no active / inactive call. Counts are relative to all reads; values above 0 arise when much of the pool is cut.

system: T1, Rep nickase domain of tomato golden mosaic virus; assay: uncleaved DNA left, log2 of reads against the no-enzyme library (log2 ratio); higher = less cleavage (more negative = more Rep cleavage of the k-mer); sequences stand for … in CTCGTCCG…ACCGGAGA
T1 sequence (residues 1-124 of Rep, tag left off): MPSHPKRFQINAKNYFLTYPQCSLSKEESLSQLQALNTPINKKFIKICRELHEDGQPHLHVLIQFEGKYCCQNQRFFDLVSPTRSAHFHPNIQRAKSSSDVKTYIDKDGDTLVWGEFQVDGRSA
Method: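 A pool of 90-nt single-stranded DNAs with seven random bases just before the constant AC of the nick site (name = the seven bases) was cut by 3 µM recombinant His6-SUMO-tagged Rep nickase domain (300 nM DNA, 50 mM HEPES pH 8.0, 50 mM NaCl, 1 mM MnCl2, 1 h, 37 °C, three replicates). Uncut DNA was amplified and sequenced.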

Row | Sequence | uncleaved DNA left (log2)
1 | AAGTCGG | 0.161
2 | GAACCTA | -0.129
3 | AGTCGCG | -0.0394
4 | CCCGAGA | 0.11
5 | ATGTGAA | 0.0318
6 | CGGGATC | -0.0567
7 | GGTGGAA | 0.0209
8 | GACTGCA | 0.0549
9 | GCTCTCA | 0.000776
10 | CAAGTAT | -0.122
11 | GACCGAG | 0.00605
12 | AGGAGAC | 0.0834
13 | ATCGGCA | -0.0684
14 | ACGGTCC | 0.0466
15 | AAGGACG | 0.239
16 | GTAATAA | -0.0346
17 | TGGAGAG | 0.118
18 | GTGTAGT | 0.21
19 | AAACTTG | 0.0458
20 | CTGCATC | -0.0584

Row | Sequence | uncleaved DNA left (log2)
21 | GATGTGT | 0.0375
22 | ACTGCGG | -0.0489
23 | TCAGAAT | 0.121
24 | ATGTCCG | 0.0216
25 | GGTGTCT | -0.104
26 | GCAACTG | -0.0212
27 | TAATGTT | -4.17
28 | GAGCAAG | 0.187
29 | AGGATAA | 0.143
30 | GGCCGTT | -0.0286
31 | CAAGCGA | -0.0624
32 | CTTGCCG | -0.121
33 | ACTCCAA | 0.0857
34 | AGTTTTT | -0.0518
35 | AGGGCAC | 0.0433
36 | GTCGAGA | 0.0735
37 | TAGGCCC | -0.014
38 | TTGAAAC | 0.0262
39 | TAGCTGT | 0.0245
40 | GGCATGG | 0.121
